Assay results published in the supplement of paper PMC12217912.
The list shows a part of the results. Sequences were assembled here from the parent chain. Values near 0.05 are background.

B1: TEV protease; numbered along this chain (parent)
chain: MGESLFKGPRDYNPISSSICHLTNESDGHTTSLYGIGFGPFIITNKHLFRRNNGTLVVQSLHGVFKVKDTTTLQQHLVDGRDMIIIRMPKDFPPFPQKLKFREPQREERICLVTTNFQTKSMSSMVSDTSCTFPSGDGIFWKHWIQTKDGQCGSPLVSTRDGFIVGIHSASNFTNTNNYFTSVPKNFMELLTNQEAQQWVSGWRLNADSVLWGGHKVFMVKPEEPFQPVKEATQL

Variants of: B1
Assay: raw area under fraction-flipped curve 0-4 h after induction (AUC4h, not background-subtracted), DNA-recorder readout of cleavage of the substrate (dimensionless); higher = more cleavage of the substrate by the protease variant
Settings: temperature: 34 °C; time window: 0-4 h after rhamnose induction
Experimental: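 In vivo DNA recorder in E. coli TOP10(DE3) ΔrhaA at 34 °C. Each TEVp single-site mutant (parent TEVp 0) is paired with a single-site variant of the 7-mer TEVs (canonical ENLYFQ|S). The substrate sits between flexible linkers in a Bxb1-sfGFP-TEVs-SsrA fusion, so cleavage stabilises Bxb1 and speeds flipping of a recombination array, read by NGS. The value is the raw area under the fraction-flipped curve over 0-4 h after rhamnose induction (AUC4h), with ≥20 reads per time point. It is not background-subtracted; inactive controls average about 0.047.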
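Further: Bxb1 expression induced with 0.2% (w/v) L-rhamnose at OD600 near 0.5, cultures sampled hourly, flipped fraction per protease–substrate barcode pair counted by paired-end Illumina sequencing.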

Variant	area with substrate ENLYAQS	area with substrate ENLYCQS	area with substrate ENLYDQS	area with substrate ENLYKQS	area with substrate ENLYMQS	area with substrate ENLYNQS	area with substrate ENLYPQS	area with substrate ENLYWQS	area with substrate ENLYEQS	area with substrate ENLYGQS	area with substrate ENLYHQS	area with substrate ENLYIQS	area with substrate ENLYQQS	area with substrate ENLYRQS	area with substrate ENLYSQS	area with substrate ENLYVQS	area with substrate ENLYYQS	area with substrate ENLYTQS	area with substrate ENLYLQS
MGESLFKGPRDYNPISSSICHLTNESDGHTTSLYGIGFGPFIITNKHLFRRNNGTLVVQSLHGVFKVKDTTTLQQHLVDGRDMIIIRMPKDFPPFPQKLMFREPQREERICLVTTNFQTKSMSSMVSDTSCTFPSGDGIFWKHWIQTKDGQCGSPLVSTRDGFIVGIHSASNFTNTNNYFTSVPKNFMELLTNQEAQQWVSGWRLNADSVLWGGHKVFMVKPEEPFQPVKEATQL [K100M]	0.0504	0.114	0.052	0.0704	0.0741	0.0572	0.0717	0.0045											
MGESLFKGPRDYNPISSSICHLTNESDGHTTSLYGIGFGPFIITNKHLFRRNNGTLVVQSLHGVFKVKDTTTLQQHLVDGRDMIIIRMPKDFPPFPQKLKFREPQREEFICLVTTNFQTKSMSSMVSDTSCTFPSGDGIFWKHWIQTKDGQCGSPLVSTRDGFIVGIHSASNFTNTNNYFTSVPKNFMELLTNQEAQQWVSGWRLNADSVLWGGHKVFMVKPEEPFQPVKEATQL [R109F]	0.0674	0.0933		0.0533	0.0842	0.0659	0.0656	0.102	0.0636	0.0643	0.0718	0.12	0.0463	0.0709	0.0626	0.098	0.0598		
MGESLFKGPRDYNPISSSICHLTNESDGHTTSLYGIGFGPFIITNKHLFRRNNGTLVVQSLHGVFKVKDTTTLQQHLVDGRDMIIIRMPKDFPPFPQKLKFREPQREERIVLVTTNFQTKSMSSMVSDTSCTFPSGDGIFWKHWIQTKDGQCGSPLVSTRDGFIVGIHSASNFTNTNNYFTSVPKNFMELLTNQEAQQWVSGWRLNADSVLWGGHKVFMVKPEEPFQPVKEATQL [C111V]	0.0798		0.046	0.0576		0.0697		0.127	0.0619	0.0521	0.054	0.126		0.0662		0.0897	0.0711		
MGESLFKGPRDYNPISSSICHLTNESDGHTTSLYGIGFGPFIITNKHLFRRNNGTLVVQSLHGVFKVKDTTTLQQHLVDGRDMIIIRMPQDFPPFPQKLKFREPQREERICLVTTNFQTKSMSSMVSDTSCTFPSGDGIFWKHWIQTKDGQCGSPLVSTRDGFIVGIHSASNFTNTNNYFTSVPKNFMELLTNQEAQQWVSGWRLNADSVLWGGHKVFMVKPEEPFQPVKEATQL [K90Q]	0.0787		0.0747	0.0335	0.0642		0.0611			0.0742	0.0564	0.136	0.053	0.052	0.0583	0.104			
MGESLFKGPRDYNPISSSICHLTNESDGHTTSLYGIGFGPFIITNKHLFRRNNGTLVVQSLHGVFKVKDTTTLQQHLVDGRDMIIIRMPKDFPPFPQKLKFREEQREERICLVTTNFQTKSMSSMVSDTSCTFPSGDGIFWKHWIQTKDGQCGSPLVSTRDGFIVGIHSASNFTNTNNYFTSVPKNFMELLTNQEAQQWVSGWRLNADSVLWGGHKVFMVKPEEPFQPVKEATQL [P104E]	0.0254	0.0517	0.0645	0.0513	0.0623	0.0436	0.0555	0.0452	0.0623		0.0469	0.0539	0.0494				0.0832	0.0485	
MGESLFKGPRDYNPISSSICHLTNESDGHTTSLYGIGFGPFIITNKHLFRRNNGTLVVQSLHGVFKVKDTTTLQQHLVDGRDMIIIRMPKVFPPFPQKLKFREPQREERICLVTTNFQTKSMSSMVSDTSCTFPSGDGIFWKHWIQTKDGQCGSPLVSTRDGFIVGIHSASNFTNTNNYFTSVPKNFMELLTNQEAQQWVSGWRLNADSVLWGGHKVFMVKPEEPFQPVKEATQL [D91V]	0.0455			0.0734	0.0807	0.0519		0.086		0.0562	0.0624		0.0587	0.0393	0.0673	0.102		0.075	
MGESLFKGPRDYNPISSSICHLTNESDGHTTSLYGIGFGPFIITNKHLFRRNNGTLVVQSLHGVFKVKDTTTLQQHLVDGRDMIIIRMPKLFPPFPQKLKFREPQREERICLVTTNFQTKSMSSMVSDTSCTFPSGDGIFWKHWIQTKDGQCGSPLVSTRDGFIVGIHSASNFTNTNNYFTSVPKNFMELLTNQEAQQWVSGWRLNADSVLWGGHKVFMVKPEEPFQPVKEATQL [D91L]	0.0621	0.117	0.0732	0.0388	0.108	0.0691	0.0813			0.0725	0.0619			0.0634					0.0804
MGESLFKGPRDYNPISSSICHLTNESDGHTTSLYGIGFGPFIITNKHLFRRNNGTLVVQSLHGVFKVKDTTTLQQHLVDGRDMIIIRMPKDFPPFPQKLKFREPQREERICLVTDNFQTKSMSSMVSDTSCTFPSGDGIFWKHWIQTKDGQCGSPLVSTRDGFIVGIHSASNFTNTNNYFTSVPKNFMELLTNQEAQQWVSGWRLNADSVLWGGHKVFMVKPEEPFQPVKEATQL [T115D]	0.0919		0.0592	0.063	0.0868			0.0918	0.0644		0.0884				0.074	0.117	0.0762	0.0951	0.0915
MGESLFKGPRDYNPISSSICHLTNESDGHTTSLYGIGFGPFIITNKHLFRRNNGTLVVQSLHGVFKVKDTTTLQQHLVDGRDMIIIRMPKDFPPFPQKLKFREPQREERICLVTSNFQTKSMSSMVSDTSCTFPSGDGIFWKHWIQTKDGQCGSPLVSTRDGFIVGIHSASNFTNTNNYFTSVPKNFMELLTNQEAQQWVSGWRLNADSVLWGGHKVFMVKPEEPFQPVKEATQL [T115S]	0.0601	0.101		0.0413	0.0822	0.0299			0.0736	0.0731	0.0727	0.146						0.0792	0.102
